Drawing on the supplement of paper PMC9446081, this text covers relative growth for 62 compounds.

Among all 39,000 compounds or so, about 220 (0.56%) showed activity. The list shows a part of the results.
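Also: static incubation at 37 °C against the wild-type strain, values averaged over two biological replicates.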

The experiment relates to Escherichia coli K-12 BW25113. The experiment in a line: relative growth (OD600 normalised to plate interquartile mean) (fraction); higher = less growth inhibition, active = 0.2 or less. The following applies: 50 µM; LB; incubation time: overnight (16-24 h).
Take `C[C@@H]1CN([C@@H](C)CO)C(=O)c2cc(NC(=O)Nc3ccc(C(F)(F)F)cc3)ccc2O[C@@H]1CN(C)Cc1ccccc1`: the relative growth was inactive: 0.966. The value for `COc1ccc2c3c(n(c2c1)C)[C@H](CO)N(Cc1cc(cc(c1)OC)OC)C[C@]13CN(C1)C(=O)CN1CCOCC1` was inactive: 1.01; that for `Cc1onc(NS(=O)(=O)c2ccccc2-c2ccc(-c3ncco3)cc2CN(C)C(=O)CC(C)(C)C)c1C` was inactive: 1; that for `COc1ccc(CN(C)C[C@H]2OCCCC[C@@H](C)Oc3ccc(NC(=O)Nc4ccc(F)cc4)cc3C(=O)N([C@H](C)CO)C[C@@H]2C)cc1` was inactive: 0.97.

With `CC(=O)OCC=C(C)CCC=C(C)CCC=C(C)CCC=C(C)CCC=C(C)CCC=C(C)CCC=C(C)CCC=C(C)CCC=C(C)C`, the relative growth was inactive: 1.11. The value for `CCNC(=O)C[C@@H]1C=C[C@H](NC(=O)C2CCOCC2)[C@@H](CO)O1` was inactive: 0.984; that for `C[C@@H]1CCCCO[C@@H](CN(C)Cc2ccccc2)[C@@H](C)CN([C@@H](C)CO)C(=O)c2cc(NC(=O)Nc3ccc4c(c3)OCO4)ccc2O1` was inactive: 0.975; that for `CO[C@H]1C[C@@H]2CC[C@@H](C)[C@@](O)(O2)C(=O)C(=O)N2CCCC[C@H]2C(=O)O[C@H]([C@H](C)C[C@@H]2CC[C@@H](OCCO)[C@H](OC)C2)CC(=O)[C@H](C)/C=C(\C)[C@@H](O)[C@@H](OC)C(=O)[C@H](C)C[C@H](C)/C=C/C=C/C=C/1C` was inactive: 1.01. The figure for `COc1ccccc1-c1cccc(-c2nc(C(=O)NCc3ccncc3)cc3c2[C@H](CCO)N([S@@](=O)C(C)(C)C)C3)c1` is inactive: 1.03; for `CNC[C@@H]1OCCCC[C@H](C)Oc2ccc(NS(=O)(=O)c3cn(C)cn3)cc2C(=O)N([C@@H](C)CO)C[C@@H]1C` it is inactive: 1.02. The value for `N=C(N)Nc1nc(=O)c2ccccc2s1` was inactive: 1.05; that for `COc1cccc(-c2ccc3c(c2)O[C@@H](CN(C)C(=O)C2CCOCC2)[C@H](C)CN([C@@H](C)CO)S3(=O)=O)c1` was inactive: 0.987; that for `C[C@H](CO)N1C[C@H](C)[C@@H](CN(C)C(=O)Nc2ccc(C(F)(F)F)cc2)Oc2ccc(NC(=O)Nc3ccccc3)cc2CC1=O` was inactive: 0.884. With `C[C@@H]1CCCCO[C@@H](CN(C)S(=O)(=O)c2cn(C)cn2)[C@@H](C)CN([C@@H](C)CO)C(=O)c2cc(NC(=O)CCCN(C)C)ccc2O1`, the relative growth is inactive: 1. The value for `CCNC(=O)NC(=O)COC(=O)CNC(=O)COc1ccccc1` was inactive: 0.978; that for `NCC[C@H]1CC[C@@H](NC(=O)c2ccccc2F)[C@H](CO)O1` was inactive: 0.993.

With `COc1ccc(-c2coc3cc(O)ccc3c2=O)c(OC)c1OC`, the relative growth was inactive: 1.15. Take `Cc1ccc(S(=O)(=O)N(C)C[C@H]2Oc3ccc(N(C)C)cc3CC(=O)N([C@@H](C)CO)C[C@H]2C)cc1`: the relative growth was inactive: 1.01.

In the case of `COCC#Cc1cnc2c(c1)C(=O)N([C@H](C)CO)C[C@@H](C)[C@H](CN(C)C(=O)Nc1ccccc1OC)O2`, the relative growth is inactive: 0.993.

Turning to `Cc1ccc(S(=O)(=O)Nc2ccc3c(c2)C(=O)N([C@@H](C)CO)C[C@@H](C)[C@@H](CN(C)C(=O)Nc2ccccc2)OCCCC[C@H](C)O3)cc1`, the relative growth is inactive: 1.02. With `CC(C)C#Cc1cnc2c(c1)C(=O)N([C@@H](C)CO)C[C@H](C)[C@H](CN(C)C(=O)c1ccc3c(c1)OCO3)O2`, the relative growth was inactive: 1. The figure for `COc1ccc(NC(=O)Nc2cccc3c2O[C@H](CN(C)Cc2ccc(Cl)c(Cl)c2)[C@@H](C)CN([C@@H](C)CO)C3=O)cc1` is inactive: 0.991; for `CCS(=O)(=O)N1C[C@]2(CCN(CC2)Cc2cccc(c2)OC)c2c([nH]c3cc(ccc23)OC)[C@@H]1CO` it is inactive: 0.995. The value for `C[C@H](CO)N1C[C@H](C)[C@H](CN(C)C(=O)Cc2ccccn2)Oc2cc(-c3cccc(C(=O)N(C)C)c3)ccc2S1(=O)=O` was inactive: 0.998; that for `C[C@@H]1CN([C@H](C)CO)S(=O)(=O)c2ccc(-c3cncnc3)cc2O[C@H]1CN(C)C(=O)NC1CCCC1` was inactive: 0.989. The value for `C[C@@H]1CN([C@H](C)CO)C(=O)c2cc(NS(=O)(=O)c3ccc(F)cc3)ccc2O[C@H]1CN(C)CC1CC1` was inactive: 0.989; that for `CN(C)CC#Cc1ccc([C@H]2[C@@H](CO)N3CCCCN(C(=O)CN(C)C)C[C@H]23)cc1` was inactive: 0.973. `Cc1noc(C)c1S(=O)(=O)N(C)C[C@@H]1OCCCC[C@@H](C)Oc2ccc(NC(=O)Nc3ccccc3)cc2C(=O)N([C@H](C)CO)C[C@@H]1C`: the relative growth is inactive: 1.01. In the case of `C[C@@H]1CN([C@H](C)CO)C(=O)c2cc(C#Cc3ccccc3F)cnc2O[C@H]1CN(C)C(=O)Cc1cccnc1`, the relative growth is inactive: 0.995. The value for `CO/N=C(\C(=O)N[C@@H]1C(=O)N2C(C(=O)O)=C(CSC(=O)c3ccco3)CS[C@H]12)c1csc(N)n1` was active: 0.0342. The figure for `Nc1ccc2cc(S(=O)(=O)O)ccc2c1/N=N/c1ccc(/C=C/c2ccc(/N=N/c3c(N)ccc4cc(S(=O)(=O)O)ccc34)cc2S(=O)(=O)O)c(S(=O)(=O)O)c1` is inactive: 1.02; for `C[C@@H]1CCCCO[C@@H](CN(C)C(=O)CCCN(C)C)[C@@H](C)CN([C@H](C)CO)C(=O)c2cc(N(C)C)ccc2O1` it is inactive: 1.01. Turning to `O=C(C[C@H]1CC[C@H]2[C@@H](COC[C@@H](O)CN2C(=O)c2ccc3c(c2)OCO3)O1)NC1Cc2ccccc2C1`, the relative growth is inactive: 0.969.

Turning to `C[C@H]1COC(=O)[C@@H](Cc2ccc(F)cc2)CCC=CC[C@@H](CC(=O)N[C@H](CO)Cc2ccccc2)C(=O)N1`, the relative growth is inactive: 1.01. The value for `C[C@@H]1CN([C@@H](C)CO)C(=O)c2cc(NC(=O)Nc3cccc4ccccc34)ccc2O[C@@H]1CN(C)Cc1ccc(C(=O)O)cc1` was inactive: 1.01; that for `O=c1[nH]c(=O)c2ccccc2[nH]1` was inactive: 1.01.

`C[C@@H]1CN([C@@H](C)CO)C(=O)Cc2cc(NS(=O)(=O)c3ccccc3)ccc2O[C@@H]1CN(C)S(=O)(=O)c1cccs1`: the relative growth is inactive: 1.03. The figure for `Cc1noc(C)c1S(=O)(=O)Nc1ccc2c(c1)C(=O)N([C@H](C)CO)C[C@H](C)[C@H](CN(C)Cc1ccc(Oc3ccccc3)cc1)O2` is inactive: 0.963.

As for `O=C(C[C@H]1C[C@@H]2c3cc(NC(=O)c4ccc5c(c4)OCO5)ccc3O[C@@H]2[C@H](CO)O1)NCc1cccnc1`, the relative growth is inactive: 0.997. The value for `c1ccc([C@@H]2CNCCN2)cc1` was inactive: 1.02; that for `C1=C(c2ccccc2)CC(c2ccccc2)=NN=C1c1ccccc1` was inactive: 1.02; that for `COc1cccc(S(=O)(=O)N2C[C@@H](O)COC[C@H]3O[C@H](CC(=O)N4CCN(c5ccccc5)CC4)CC[C@@H]32)c1` was inactive: 0.985.

With `C[C@H](CO)N1C[C@H](C)[C@H](CN(C)CC2CCCCC2)Oc2ccc(NC(=O)Nc3ccc(F)cc3)cc2CC1=O`, the relative growth was inactive: 0.985. The value for `CC(C)(C)C(=O)c1cccs1` was inactive: 0.996; that for `O=C(O)CCNC(=O)c1cncc(O)c1` was inactive: 1.01. Take `CC1=NNc2nc3c(c(=O)n(C)c(=O)n3C)n2C1`: the relative growth was inactive: 0.983. The figure for `O=C(O)[C@H]1[C@H](CO)[C@H]2Cn3c(ccc(-c4cncnc4)c3=O)[C@H]2N1C(=O)C1CCC1` is inactive: 1. The figure for `C[C@H](CO)N1C[C@H](C)[C@@H](CN(C)C(=O)Nc2ccc(C(F)(F)F)cc2)Oc2ncc(C#C[C@@H](C)O)cc2C1=O` is inactive: 1.02; for `C[C@@H]1CN([C@@H](C)CO)C(=O)Cc2cc(NC(=O)c3ccncc3)ccc2O[C@@H]1CN(C)Cc1ccc(-c2ccccc2)cc1` it is inactive: 0.971.

As for `COc1cccc(NC(=O)N[C@@H]2CC[C@@H](CC(=O)N3CCN(C)CC3)O[C@@H]2CO)c1`, the relative growth is inactive: 1.04.

`C[C@@H]1CN([C@H](C)CO)C(=O)Cc2cc(NS(=O)(=O)c3ccc(Cl)cc3)ccc2O[C@@H]1CN(C)C`: the relative growth is inactive: 0.994. The value for `Cc1noc(C)c1S(=O)(=O)Nc1cccc2c1O[C@H](CN(C)S(=O)(=O)c1cn(C)cn1)[C@H](C)CN([C@@H](C)CO)C2=O` was inactive: 0.983; that for `CO[C@@H]1CN(C)C(=O)c2ccc(NC(=O)NC(C)C)cc2OC[C@@H](C)N(Cc2ccc(-c3ccccn3)cc2)C[C@H]1C` was inactive: 1.01; that for `C[C@@H]1CCCCO[C@H](CN(C)S(=O)(=O)c2ccc(Cl)cc2)[C@H](C)CN([C@H](C)CO)C(=O)c2cc(NS(=O)(=O)c3ccc(Cl)cc3)ccc2O1` was inactive: 0.978.

As for `CC(C)NC(=O)N(C)C[C@H]1Oc2ccc(NS(=O)(=O)c3cn(C)cn3)cc2CC(=O)N([C@H](C)CO)C[C@@H]1C`, the relative growth was inactive: 1.01.

Turning to `Nc1c2c(nc3ccccc13)CCCC2`, the relative growth was inactive: 0.985.

For the compound `O=c1[nH]c(=O)n([C@H]2C[C@H](O)[C@@H](CO)O2)cc1C(F)(F)F`, the relative growth was inactive: 0.53. The figure for `CO[C@H](CN(C)C(=O)Nc1ccc(C(F)(F)F)cc1)[C@@H](C)CN(Cc1ccccc1Cl)[C@H](C)CO` is inactive: 0.993. `CCCCC(CC)COC(=O)C(C#N)=C(c1ccccc1)c1ccccc1` (configuration not stated): the relative growth is inactive: 1.03. Regarding `CCC(CCC(C)C1CCC2C3CC=C4CC(O)CCC4(C)C3CCC12C)C(C)C` (stereo not drawn) [beta-SITOSTEROL], the relative growth was inactive: 0.969. The value for `COc1ccc([Si](C)(C)[C@@H]2[C@@H](CCOC(=O)NCCCCCC(=O)NO)O[C@@]3(C(=O)N(Cc4ccccc4)c4ccc(NC(=O)[C@@H](C)OC(=O)NCCCCCC(=O)NO)cc43)[C@H]2C)cc1` was inactive: 1; that for `C[C@H]1CN([C@@H](C)CO)S(=O)(=O)c2ccc(-c3ccc(F)cc3)cc2O[C@@H]1CN(C)C(=O)C1CCOCC1` was inactive: 0.972.
